# Measurements published in the supplement of paper PMC8728848.
# This is one part of the list.
# Assays:
# Assay in all cases: glycan array binding signal (z-score within array); higher = stronger binding
# Conditions in all cases: glycan notation: IUPAC condensed, linker removed
# Fuc(a1-2)Gal = target: Fuc(a1-2)Gal
# How it was run: (§1)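 From the Consortium for Functional Glycomics database, 3228 arrays were curated, keeping only those whose protein sequence was available. Binding is given as a within-array Z-score averaged across arrays sharing a protein sequence and across linkers. Negative Z-scores can be read as non-binding.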
# Fuc(a1-2)Gal(b1-3)GalNAc = target: Fuc(a1-2)Gal(b1-3)GalNAc
# How it was run: as §1
# [1] = target: Fuc(a1-2)Gal(b1-3)GalNAc(a1-3)[Fuc(a1-2)]Gal(b1-4)Glc
# How it was run: as §1
# [2] = target: Fuc(a1-2)Gal(b1-3)GalNAc(a1-3)[Fuc(a1-2)]Gal(b1-4)GlcNAc
# How it was run: as §1
# [3] = target: Fuc(a1-2)Gal(b1-3)GalNAc(b1-3)Gal
# How it was run: as §1
# [4] = target: Fuc(a1-2)Gal(b1-3)GalNAc(b1-3)Gal(a1-4)Gal(b1-4)Glc
# How it was run: as §1
# [5] = target: Fuc(a1-2)Gal(b1-3)GalNAc(b1-4)[Neu5Ac(a2-3)]Gal(b1-4)Glc
# How it was run: as §1
# Fuc(a1-2)Gal(b1-3)GlcNAc = target: Fuc(a1-2)Gal(b1-3)GlcNAc
# How it was run: as §1
# [6] = target: Fuc(a1-2)Gal(b1-3)GlcNAc(b1-2)Man(a1-3)[Fuc(a1-2)Gal(b1-3)GlcNAc(b1-2)Man(a1-6)]Man(b1-4)GlcNAc(b1-4)GlcNAc
# How it was run: as §1
# [7] = target: Fuc(a1-2)Gal(b1-3)GlcNAc(b1-2)Man(a1-3)[Fuc(a1-2)Gal(b1-3)GlcNAc(b1-2)Man(a1-6)]Man(b1-4)GlcNAc(b1-4)[Fuc(a1-6)]GlcNAc
# How it was run: as §1
# [8] = target: Fuc(a1-2)Gal(b1-3)GlcNAc(b1-3)Gal(b1-4)Glc
# How it was run: as §1
# [9] = target: Fuc(a1-2)Gal(b1-3)GlcNAc(b1-3)GalNAc
# How it was run: as §1
# [10] = target: Fuc(a1-2)Gal(b1-3)GlcNAc(b1-3)[Fuc(a1-2)Gal(b1-3)GlcNAc(b1-6)]GalNAc
# How it was run: as §1
# [11] = target: Fuc(a1-2)Gal(b1-3)GlcNAc(b1-3)[Gal(b1-4)GlcNAc(b1-6)]Gal(b1-4)Glc
# How it was run: as §1
# [12] = target: Fuc(a1-2)Gal(b1-3)GlcNAc(b1-3)[Neu5Ac(a2-6)Gal(b1-4)GlcNAc(b1-6)]Gal(b1-4)Glc
# How it was run: as §1
# [13] = target: Fuc(a1-2)Gal(b1-3)GlcNAc6S
# How it was run: as §1
# [14] = target: Fuc(a1-2)Gal(b1-3)[Fuc(a1-4)]GlcNAc
# How it was run: as §1
# [15] = target: Fuc(a1-2)Gal(b1-3)[Fuc(a1-4)]GlcNAc(b1-2)Man(a1-3)[Fuc(a1-2)Gal(b1-3)[Fuc(a1-4)]GlcNAc(b1-2)Man(a1-3)]Man(b1-4)GlcNAc(b1-4)GlcNAc
# How it was run: as §1
# [16] = target: Fuc(a1-2)Gal(b1-3)[Fuc(a1-4)]GlcNAc(b1-2)Man(a1-3)[Fuc(a1-2)Gal(b1-3)[Fuc(a1-4)]GlcNAc(b1-2)Man(a1-6)]Man(b1-4)GlcNAc(b1-4)[Fuc(a1-6)]GlcNAc(b1-4)[Fuc(a1-6)]GlcNAc
# How it was run: as §1
# [17] = target: Fuc(a1-2)Gal(b1-3)[Fuc(a1-4)]GlcNAc(b1-3)[Fuc(a1-3)[Gal(b1-4)]GlcNAc(b1-6)]Gal(b1-4)Glc
# How it was run: as §1
# [18] = target: Fuc(a1-2)Gal(b1-3)[Fuc(a1-4)]GlcNAc(b1-3)[Gal(b1-4)GlcNAc(b1-6)]Gal(b1-4)Glc
# How it was run: as §1
# Fuc(a1-2)Gal(b1-4)Glc = target: Fuc(a1-2)Gal(b1-4)Glc
# How it was run: as §1
# Fuc(a1-2)Gal(b1-4)Glc6S = target: Fuc(a1-2)Gal(b1-4)Glc6S
# How it was run: as §1
# Fuc(a1-2)Gal(b1-4)GlcNAc = target: Fuc(a1-2)Gal(b1-4)GlcNAc
# How it was run: as §1
# [19] = target: Fuc(a1-2)Gal(b1-4)GlcNAc(b1-2)Man
# How it was run: as §1
# [20] = target: Fuc(a1-2)Gal(b1-4)GlcNAc(b1-2)Man(a1-3)[Fuc(a1-2)Gal(b1-4)GlcNAc(b1-2)Man(a1-6)]Man(b1-4)GlcNAc(b1-4)GlcNAc
# How it was run: as §1
# [21] = target: Fuc(a1-2)Gal(b1-4)GlcNAc(b1-2)Man(a1-3)[Fuc(a1-2)Gal(b1-4)GlcNAc(b1-2)Man(a1-6)]Man(b1-4)GlcNAc(b1-4)[Fuc(a1-6)]GlcNAc
# How it was run: as §1
# [22] = target: Fuc(a1-2)Gal(b1-4)GlcNAc(b1-2)[Fuc(a1-2)Gal(b1-4)GlcNAc(b1-4)]Man(a1-3)[Fuc(a1-2)Gal(b1-4)GlcNAc(b1-2)Man(a1-6)]Man(b1-4)GlcNAc(b1-4)GlcNAc
# How it was run: as §1
# [23] = target: Fuc(a1-2)Gal(b1-4)GlcNAc(b1-3)Gal(b1-4)GlcNAc
# How it was run: as §1
# [24] = target: Fuc(a1-2)Gal(b1-4)GlcNAc(b1-3)Gal(b1-4)GlcNAc(b1-2)Man(a1-3)[Fuc(a1-2)Gal(b1-4)GlcNAc(b1-3)Gal(b1-4)GlcNAc(b1-2)Man(a1-6)]Man(b1-4)GlcNAc(b1-4)GlcNAc
# How it was run: as §1
# [25] = target: Fuc(a1-2)Gal(b1-4)GlcNAc(b1-3)Gal(b1-4)GlcNAc(b1-3)Gal(b1-4)GlcNAc
# How it was run: as §1
# [26] = target: Fuc(a1-2)Gal(b1-4)GlcNAc(b1-3)GalNAc
# How it was run: as §1
# [27] = target: Fuc(a1-2)Gal(b1-4)GlcNAc(b1-3)[Fuc(a1-2)Gal(b1-4)GlcNAc(b1-6)]GalNAc
# How it was run: as §1
# [28] = target: Fuc(a1-2)Gal(b1-4)GlcNAc(b1-3)[Fuc(a1-3)[Gal(b1-4)]GlcNAc(b1-6)]Gal(b1-4)Glc
# How it was run: as §1
# [29] = target: Fuc(a1-2)Gal(b1-4)GlcNAc(b1-6)GalNAc
# How it was run: as §1
# [30] = target: Fuc(a1-2)Gal(b1-4)GlcNAc6S
# How it was run: as §1
# [31] = target: Fuc(a1-2)Gal(b1-4)[Fuc(a1-3)]GlcNAc
# How it was run: as §1
# [32] = target: Fuc(a1-2)Gal(b1-4)[Fuc(a1-3)]GlcNAc(b1-2)Man(a1-3)[Fuc(a1-2)Gal(b1-4)[Fuc(a1-3)]GlcNAc(b1-2)Man(a1-6)]Man(b1-4)GlcNAc(b1-4)[Fuc(a1-6)]GlcNAc
# How it was run: as §1
# [33] = target: Fuc(a1-2)Gal(b1-4)[Fuc(a1-3)]GlcNAc(b1-2)[Fuc(a1-2)Gal(b1-4)[Fuc(a1-3)]GlcNAc(b1-4)]Man(a1-3)[Fuc(a1-2)Gal(b1-4)[Fuc(a1-3)]GlcNAc(b1-2)Man(a1-6)]Man(b1-4)GlcNAc(b1-4)GlcNAc
# How it was run: as §1
# [34] = target: Fuc(a1-2)Gal(b1-4)[Fuc(a1-3)]GlcNAc(b1-3)Gal(b1-4)[Fuc(a1-3)]GlcNAc
# How it was run: as §1
# [35] = target: Fuc(a1-2)Gal(b1-4)[Fuc(a1-3)]GlcNAc(b1-3)Gal(b1-4)[Fuc(a1-3)]GlcNAc(b1-3)Gal(b1-4)[Fuc(a1-3)]GlcNAc
# How it was run: as §1
# [36] = target: Fuc(a1-2)Gal(b1-4)[Fuc(a1-3)]GlcNAc(b1-3)GalNAc
# How it was run: as §1
# [37] = target: Fuc(a1-2)Gal(b1-4)[Fuc(a1-3)]GlcNAc(b1-3)[Neu5Ac(a2-6)Gal(b1-4)GlcNAc(b1-6)]Gal(b1-4)Glc
# How it was run: as §1
# [38] = target: Fuc(a1-2)Gal3S(b1-4)GlcNAc
# How it was run: as §1
# [39] = target: Fuc(a1-2)Gal6S(b1-3)GlcNAc
# How it was run: as §1
binder,measurement,setting,value
PX9937A-bvu-521-23-521 (Bacteroides vulgatus) (protein) LDLAPEDYYGAGNFWKEASQPKAFMLGLHAQLRSYYDMFYTLGELRGGTQRVGTSSLNTSLNYADIRSQNISEDIPGISNWNGLYSPIMQVNHFIQEVENGCTFLDDATRSRYLGQAYGMRALYYFMLYRTFGGVPLITKVDILDGKPSADKFYVERATPEATMEFIKADINKSENYFGNNTSFDAYDWSRYATLMLKAEIYMWAAKVSITGFTATGATDLQTAKTALSGIIGHFELMDNFASIFSCDNKKNTEIIFAMPFIEGEASNDGGRFLYQDAVFLGQAYGRNGKVIEKDTLNLKGTGGVFRDEYTEDFWKTFKEGDSRRDATFMEYYMKNDNGTLSEFGCVMKKRIGTINSNDNRIYISDIPVYRYADALLMMAEIENGLNNPCASYINEVRKRAYGDTFEENKYTEGSYAENELAILQERDKEFVSEGKRWFDVLRMHDASGRSLVFSANANYPGTNPILGTEEAYKMLWPVNIGTLNVNPLLTQTPGYGKK,glycan array binding signal (z-score),Fuc(a1-2)Gal,-0.191
same,glycan array binding signal (z-score),Fuc(a1-2)Gal(b1-3)GalNAc,-0.307
same,glycan array binding signal (z-score),[1],-0.339
same,glycan array binding signal (z-score),[2],0.427
same,glycan array binding signal (z-score),[3],-0.141
same,glycan array binding signal (z-score),[4],-0.267
same,glycan array binding signal (z-score),[5],-0.019
same,glycan array binding signal (z-score),Fuc(a1-2)Gal(b1-3)GlcNAc,-0.251
same,glycan array binding signal (z-score),[6],0.779
same,glycan array binding signal (z-score),[7],-0.54
same,glycan array binding signal (z-score),[8],-0.28
same,glycan array binding signal (z-score),[9],-0.414
same,glycan array binding signal (z-score),[10],-0.583
same,glycan array binding signal (z-score),[11],-0.533
same,glycan array binding signal (z-score),[12],-0.405
same,glycan array binding signal (z-score),[13],0.155
same,glycan array binding signal (z-score),[14],-0.523
same,glycan array binding signal (z-score),[15],0.234
same,glycan array binding signal (z-score),[16],-0.195
same,glycan array binding signal (z-score),[17],-0.621
same,glycan array binding signal (z-score),[18],0.313
same,glycan array binding signal (z-score),Fuc(a1-2)Gal(b1-4)Glc,-0.301
same,glycan array binding signal (z-score),Fuc(a1-2)Gal(b1-4)Glc6S,-0.228
same,glycan array binding signal (z-score),Fuc(a1-2)Gal(b1-4)GlcNAc,-0.41
same,glycan array binding signal (z-score),[19],0.09
same,glycan array binding signal (z-score),[20],0.134
same,glycan array binding signal (z-score),[21],0.307
same,glycan array binding signal (z-score),[22],0.752
same,glycan array binding signal (z-score),[23],-0.02
same,glycan array binding signal (z-score),[24],0.158
same,glycan array binding signal (z-score),[25],-0.098
same,glycan array binding signal (z-score),[26],-0.245
same,glycan array binding signal (z-score),[27],-0.059
same,glycan array binding signal (z-score),[28],-0.083
same,glycan array binding signal (z-score),[29],1.5
same,glycan array binding signal (z-score),[30],-0.53
same,glycan array binding signal (z-score),[31],-0.27
same,glycan array binding signal (z-score),[32],0.701
same,glycan array binding signal (z-score),[33],0.407
same,glycan array binding signal (z-score),[34],-0.113
same,glycan array binding signal (z-score),[35],-0.08
same,glycan array binding signal (z-score),[36],-0.577
same,glycan array binding signal (z-score),[37],-0.265
same,glycan array binding signal (z-score),[38],-0.223
same,glycan array binding signal (z-score),[39],-0.167
